In the supplement of paper PMC4604168 (melanoma cell lines):
Some of the results follow. Most values come without repeats; read them as rough.

What was measured:
Experiment in all cases: cell count relative to DMSO control; melanoma cells; higher = more viable cells
Settings in all cases: library dose: standard library concentration; 72 h
G361 = tested on: G361
IPC-298 = tested on: IPC-298
IST-MEL1 = tested on: IST-MEL1
LB2518-MEL = tested on: LB2518-MEL
LOXIMVI = tested on: LOXIMVI
MEL-HO = tested on: MEL-HO
MZ2-MEL = tested on: MZ2-MEL
MeWo = tested on: MeWo
RPMI7951 = tested on: RPMI7951
RVH-421 = tested on: RVH-421
SkMel28 = tested on: SkMel28
SkMel2 = tested on: SkMel2
SkMel30 = tested on: SkMel30
SkMel5 = tested on: SkMel5
UACC257 = tested on: UACC257
UACC62 = tested on: UACC62
WM115 = tested on: WM115
WM1716 = tested on: WM1716
WM1745 = tested on: WM1745
WM3526 = tested on: WM3526
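Note: cells treated in 1,536-well plates, then fixed and DAPI-stained, with nuclei counted from automated high-throughput microscope images.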

Compound | cell count (G361) [%] | cell count (IPC-298) [%] | cell count (IST-MEL1) [%] | cell count (LB2518-MEL) [%] | cell count (LOXIMVI) [%] | cell count (MEL-HO) [%] | cell count (MZ2-MEL) [%] | cell count (MeWo) [%] | cell count (RPMI7951) [%] | cell count (RVH-421) [%] | cell count (SkMel28) [%] | cell count (SkMel2) [%] | cell count (SkMel30) [%] | cell count (SkMel5) [%] | cell count (UACC257) [%] | cell count (UACC62) [%] | cell count (WM115) [%] | cell count (WM1716) [%] | cell count (WM1745) [%] | cell count (WM3526) [%]
N.N.[Cl][Pt][Cl] [cisplatin] + Cc1cc(N2CCOCC2)cc2[nH]c(-c3c(NC[C@@H](O)c4cccc(Cl)c4)cc[nH]c3=O)nc12 [BMS536924] (first compound 8 µM, partner dose 1 µM) | 91.3 | 99.3 | 89.3 | 71 | 97.3 | 96 | 112 | 90.1 | 67.8 | 102 | 96.5 | 74.7 | 98.2 | 65.1 | 91.9 | 114 | 94.7 | 87 | 61.4 | 90.4
C[As](C)SC[C@H](NC(=O)CC[C@H](N)C(=O)O)C(=O)NCC(=O)O [Darinaparsin] + COc1cc2c(Oc3ccc4[nH]c(C)cc4c3F)ncnc2cc1OCCCN1CCCC1 [cediranib] (first compound 2 µM, partner dose 2 µM) | 103 | 135 | 130 | 87.4 | 89.2 | 133 | 136 | 75.6 | 90.3 | 102 | 173 | 109 | 105 | 74 | 74.3 | 135 | 102 | 84.9 | 91.2 | 81.2
Cn1cc(C2=C(c3cn(C4CCN(Cc5ccccn5)CC4)c4ccccc34)C(=O)NC2=O)c2ccccc21 [Enzastaurin] + C#Cc1cccc(Nc2ncnc3cc(OCCOC)c(OCCOC)cc23)c1 [erlotinib] (first compound 4 µM, partner dose 4 µM) | 72.1 | 82.4 | 72.4 | 35.3 | 83.8 | 85.6 | 98.4 | 73 | 48 | 57.1 | 62.9 | 57.2 | 67.7 | 63.6 | 95.6 | 72.5 | 89.6 | 82.2 | 19.1 | 74.1
C[As](C)SC[C@H](NC(=O)CC[C@H](N)C(=O)O)C(=O)NCC(=O)O [Darinaparsin] + O=C1NC(=O)/C(=C/c2ccc(-c3ccc(F)cc3O)o2)S1 [AS252424] (first compound 2 µM, partner dose 5 µM) | 72.8 | 91.8 | 109 | 100 | 97.9 | 89.4 | 87 | 82.8 | 96.5 | 128 | 118 | 78.7 | 90.9 | 88.1 | 102 | 145 | 80.4 | 72.4 | 84.7 | 73.2
Cn1cc(C2=C(c3cn(C4CCN(Cc5ccccn5)CC4)c4ccccc34)C(=O)NC2=O)c2ccccc21 [Enzastaurin] + O=C(CCCCCCC(=O)Nc1ccccc1)NO [vorinostat] (first compound 4 µM, partner dose 0.4 µM) | 72.8 | 84.5 | 108 | 89.9 | 80.5 | 91.6 | 103 | 97.5 | 55.9 | 100 | 52.1 | 75 | 95.4 | 64 | 78.8 | 53.1 | 64.5 | 82.4 | 73.7 | 80.3
C[As](C)SC[C@H](NC(=O)CC[C@H](N)C(=O)O)C(=O)NCC(=O)O [Darinaparsin] + COCC[n+]1c2c(n(Cc3cnccn3)c1C)C(=O)c1ccccc1C2=O [YM155] (first compound 2 µM, partner dose 0.002 µM) | 69.6 | 54.8 | 35.3 | 32.7 | 44.7 | 80.3 | 25.9 | 26.8 | 27.3 | 63.6 | 41.3 | 33.9 | 49.6 | 26 | 17.3 | 46.4 | 63.9 | 54.9 | 60.4 | 44.3
C[As](C)SC[C@H](NC(=O)CC[C@H](N)C(=O)O)C(=O)NCC(=O)O [Darinaparsin] + Cc1cc(N2CCOCC2)cc2[nH]c(-c3c(NC[C@@H](O)c4cccc(Cl)c4)cc[nH]c3=O)nc12 [BMS536924] (first compound 2 µM, partner dose 1 µM) | 52.4 | 94.5 | 75 | 71.8 | 63.8 | 77.7 | 94.3 | 66.1 | 85.7 | 83.3 | 60.5 | 82.5 | 77.3 | 71.7 | 83.4 | 101 | 68.4 | 58.7 | 52.7 | 56.5
C[As](C)SC[C@H](NC(=O)CC[C@H](N)C(=O)O)C(=O)NCC(=O)O [Darinaparsin] + COc1cc2ncnc(Nc3ccc(Oc4ccccc4)cc3)c2cc1OC [SrcI1] (first compound 2 µM, partner dose 10 µM) | 67.4 | 85.4 | 82.1 | 128 | 274 | 83.8 | 79.8 | 59.2 | 61.4 | 84.3 | 55.6 | 96.8 | 82.9 | 43.7 | 68.7 | 81.9 | 52.7 | 59.3 | 76.9 | 51.2
N.N.[Cl][Pt][Cl] [cisplatin] + Cn1cncc1[C@@](N)(c1ccc(Cl)cc1)c1ccc2c(c1)c(-c1cccc(Cl)c1)cc(=O)n2C [tipifarnib] (first compound 8 µM, partner dose 0.05 µM) | 86.8 | 110 | 77.7 | 83.2 | 60.8 | 104 | 134 | 97.5 | 60.9 | 70.8 | 85.8 | 75.5 | 110 | 77.1 | 68.5 | 80.9 | 66 | 74 | 84.5 | 98.9
C[As](C)SC[C@H](NC(=O)CC[C@H](N)C(=O)O)C(=O)NCC(=O)O [Darinaparsin] + Cc1ccc(NC(=O)c2cccc(N(C)C)c2)cc1NC(=O)c1ccc(O)cc1 [ZM336372] (first compound 2 µM, partner dose 10 µM) | 81.9 | 88 | 84.7 | 73.6 | 80.7 | 83.5 | 102 | 90.4 | 84.1 | 87.9 | 82.5 | 76.8 | 95.6 | 61.5 | 80.7 | 101 | 93.3 | 84.3 | 121 | 77
C[C@]12O[C@H](C[C@]1(O)CO)n1c3ccccc3c3c4c(c5c6ccccc6n2c5c31)CNC4=O [Lestaurtinib] + COc1cc2c(Oc3ccc4[nH]c(C)cc4c3F)ncnc2cc1OCCCN1CCCC1 [cediranib] (first compound 0.02 µM, partner dose 2 µM) | 80 | 98.5 | 108 | 75.3 | 74.8 | 88.6 | 120 | 83.8 | 48 | 96.3 | 73.2 | 89.9 | 91.3 | 63.5 | 69.6 | 86.2 | 71.5 | 84.6 | 107 | 72.6
C[As](C)SC[C@H](NC(=O)CC[C@H](N)C(=O)O)C(=O)NCC(=O)O [Darinaparsin] + CC1(C)NC(=O)N(c2ccc([N+](=O)[O-])c(C(F)(F)F)c2)C1=O [nilutamide] (first compound 2 µM, partner dose 5 µM) | 77 | 110 | 77.3 | 88.3 | 85.8 | 93.5 | 123 | 81.9 | 113 | 72.1 | 65.9 | 76.8 | 99.8 | 51.7 | 82.5 | 94.7 | 63.4 | 64.5 | 91.9 | 82.7
Cn1cc(C2=C(c3cn(C4CCN(Cc5ccccn5)CC4)c4ccccc34)C(=O)NC2=O)c2ccccc21 [Enzastaurin] + NC(=O)c1ccc(N(C(N)=O)c2c(F)cccc2F)nc1-c1ccc(F)cc1F [VX702] (first compound 4 µM, partner dose 2 µM) | 65.9 | 90.9 | 87.6 | 51.9 | 110 | 101 | 105 | 97.4 | 66.1 | 64.3 | 95.6 | 71.5 | 91.6 | 76.7 | 104 | 69.5 | 102 | 75.1 | 69.8 | 101
Cn1cc(C2=C(c3cn(C4CCN(Cc5ccccn5)CC4)c4ccccc34)C(=O)NC2=O)c2ccccc21 [Enzastaurin] + Cn1sc(=O)n(Cc2ccccc2)c1=O [TDZD-8] (first compound 4 µM, partner dose 2 µM) | 87.8 | 93.1 | 86.8 | 75.4 | 124 | 107 | 104 | 105 | 74.4 | 63.9 | 78.7 | 77.9 | 90.1 | 79.4 | 72.9 | 100 | 130 | 73.2 | 68.6 | 120
C[As](C)SC[C@H](NC(=O)CC[C@H](N)C(=O)O)C(=O)NCC(=O)O [Darinaparsin] + CO[C@@H]1[C@H](N(C)C(=O)c2ccccc2)C[C@H]2O[C@]1(C)n1c3ccccc3c3c4c(c5c6ccccc6n2c5c31)C(=O)NC4 [Midostaurin] (first compound 2 µM, partner dose 0.4 µM) | 47.7 | 84 | 70.2 | 52.3 | 59.6 | 79.8 | 65.7 | 65.3 | 48.5 | 58.5 | 49.2 | 52.8 | 49 | 43.9 | 56.8 | 56 | 34.5 | 47.6 | 56.4 | 54.9
C[As](C)SC[C@H](NC(=O)CC[C@H](N)C(=O)O)C(=O)NCC(=O)O [Darinaparsin] + Oc1nc(-c2ccc(C(F)(F)F)cc2)nc2c1CSCC2 [XAV939] (first compound 2 µM, partner dose 10 µM) | 75.4 | 88.3 | 90 | 82.3 | 80.1 | 89.3 | 91.4 | 83.1 | 86.8 | 103 | 70 | 107 | 90.7 | 65.5 | 61.4 | 79.4 | 95.1 | 61.5 | 82.3 | 75.8
C[As](C)SC[C@H](NC(=O)CC[C@H](N)C(=O)O)C(=O)NCC(=O)O [Darinaparsin] + CC(C)CCN1c2nc(Nc3cc(F)c(O)c(F)c3)ncc2N(C)C(=O)C1C [BID1870] (first compound 2 µM, partner dose 1 µM) | 45.3 | 61.8 | 78 | 84.4 | 63.5 | 58.2 | 76.2 | 48.6 | 52.9 | 54.8 | 58.1 | 69 | 64.5 | 54.8 | 86.3 | 55.2 | 89.1 | 76.5 | 90.2 | 60.9
